From the RNAGym collection of RNA variant scans (doi:10.1073/pnas.2313332121) come the findings set out here.

Variants at the floor of the assay are shown more often than the library holds them.

First the molecules themselves.
B1: TPR 5TU (parent)
chain: GGAUCUUCUCGAUCUAACAAAAAAGACAAAUCUGCCACAAAGCUUGAGAGCAUCUUCGGAUGCAGAGGCGGCAGCCUUCGGUGGCGCGAUAGCGCCAACGUUCUCAACUAUGACACGCAAAACGCGUGCUCCGUUGAAUGGAGUUUAUCAUG

The variants in the series derive from B1. The experiment in a line: polymerase ribozyme fitness, log enrichment relative to wild type (log ratio); higher = more active; in vitro selection for triplet polymerase activity. The essentials:
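Fitness measures genotype enrichment against wild-type enrichment on a logarithmic scale, with inverse-variance-weighted averaging of replicates. The logarithm is base 2, and genotypes were kept only with ≥10 input reads and ≥1 read per output in Illumina sequencing. The sequenced libraries came from one triplicate in vitro selection round, including frozen incubation at −7 °C, of PCR-built, transcribed mutant libraries of each subunit of a heterodimeric triplet polymerase ribozyme.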
Consider G84C U148A, for which the “polymerase ribozyme fitness (log ratio)” value was at most -4.2. Take G81A G92A C103G A122U C125G G141A: the “polymerase ribozyme fitness (log ratio)” value was at most -4.2. The figure for C87G is at most -4.2; for U78G C105G U145G it is at most -4.2. The figure for G80U C85A C96U C118U A120U G133U is at most -4.2; for C85G A106U A137C it is at most -4.2; for C87A U101C G126U it is at most -4.2.

On to C85U A113C C118G A122G U139A, for which the “polymerase ribozyme fitness (log ratio)” value is at most -4.2.

As for C85G C93U C118A A119U A122U A137G, the “polymerase ribozyme fitness (log ratio)” value was at most -4.2. With C87A A97C U134A, the “polymerase ribozyme fitness (log ratio)” value was at most -4.2. For G83U C129G U148A, the “polymerase ribozyme fitness (log ratio)” value is at most -4.2.

As to C79A C114A U134A U135A, the “polymerase ribozyme fitness (log ratio)” value is at most -4.2.

Consider G86A C87A C116U, for which the “polymerase ribozyme fitness (log ratio)” value was at most -4.2. The same measure for C79U G81A C93U U102A: at most -4.2. The same measure for G84A C108G A110G: at most -4.2.

As for U78A G80U A91U C105U A119U U135A G140U U145G, the “polymerase ribozyme fitness (log ratio)” value is at most -4.2. Consider G80A G94A C105G A107U, for which the “polymerase ribozyme fitness (log ratio)” value was at most -4.2. For the variant C79G C87A C105G G141C, the “polymerase ribozyme fitness (log ratio)” value is at most -4.2. The figure for G80C C93A A120U U127G G141C is at most -4.2; for C85G C105U C149A it is at most -4.2; for G83C A107C G136C it is at most -4.2. Turning to G84A A110U A113C A115U C116U, the “polymerase ribozyme fitness (log ratio)” value was at most -4.2. The same measure for C85G G88U A89G C93U: at most -4.2; for C85G C95U C99U C116A G128A: at most -4.2; for G83C C95A C116G: at most -4.2. The same measure for C79U C93A C99A G126A G141U G152A: at most -4.2; for C87A G136C: at most -4.2. The same measure for C87G U104C C149A: at most -4.2; for G83A C96U C123G G126C A138C U148A: at most -4.2.

C79G G152A: the “polymerase ribozyme fitness (log ratio)” value was at most -4.2. As to C79G C85U G92A C95U U148A, the “polymerase ribozyme fitness (log ratio)” value is at most -4.2. In the case of G84C G143U, the “polymerase ribozyme fitness (log ratio)” value is at most -4.2. On to C79G G80C G83A A122G C125U G140U, for which the “polymerase ribozyme fitness (log ratio)” value was at most -4.2. As to G81U C87U C95G C116G U139A, the “polymerase ribozyme fitness (log ratio)” value was at most -4.2. Turning to C79G C105G U109G, the “polymerase ribozyme fitness (log ratio)” value is at most -4.2.

Take G80A U139A G143U U146C: the “polymerase ribozyme fitness (log ratio)” value is at most -4.2. The figure for G81C G88A U102G is at most -4.2.

As to U78A C93G, the “polymerase ribozyme fitness (log ratio)” value was at most -4.2. On to G84U C87G G141C U145C, for which the “polymerase ribozyme fitness (log ratio)” value is at most -4.2. As for U78A G84U A91C C108A A121C, the “polymerase ribozyme fitness (log ratio)” value is at most -4.2. The figure for G84U A137C is at most -4.2; for C79G G81A C85A U144A it is at most -4.2; for G83A A91U it is at most -4.2. Turning to C79A C105A, the “polymerase ribozyme fitness (log ratio)” value is at most -4.2. U78G G83U A120U G136C A137G: the “polymerase ribozyme fitness (log ratio)” value was at most -4.2. In the case of G80C C96G C105U, the “polymerase ribozyme fitness (log ratio)” value is at most -4.2. On to C85G C114A U146C, for which the “polymerase ribozyme fitness (log ratio)” value is at most -4.2. Turning to C87G A142C, the “polymerase ribozyme fitness (log ratio)” value was at most -4.2. The same measure for C79G C96A G126U U144G: at most -4.2; for C79A U134G A150C: at most -4.2.

Regarding G80U G92A C149U, the “polymerase ribozyme fitness (log ratio)” value is at most -4.2. The same measure for G86C G88C: at most -4.2; for C85U C93A A97U G100C U134A C149G: at most -4.2.

With C85A G92C G94A C99A C108A A122U, the “polymerase ribozyme fitness (log ratio)” value is at most -4.2. G81A G128C G143C: the “polymerase ribozyme fitness (log ratio)” value is at most -4.2. As to C87G A97G A121U, the “polymerase ribozyme fitness (log ratio)” value is at most -4.2. Regarding C87G A113C, the “polymerase ribozyme fitness (log ratio)” value was at most -4.2. The figure for C79A A91G is at most -4.2; for C85A C118G A137C U151A it is at most -4.2. U78A U90A A106C: the “polymerase ribozyme fitness (log ratio)” value was at most -4.2. For C85A C96G G141C U146C, the “polymerase ribozyme fitness (log ratio)” value is at most -4.2. On to G84U G100U, for which the “polymerase ribozyme fitness (log ratio)” value is at most -4.2. The same measure for C87U A91G C93U G133U U135G: at most -4.2; for G83A G92A A107G G143C: at most -4.2. Turning to C85G C93A G124A U139G G141C A150C, the “polymerase ribozyme fitness (log ratio)” value is at most -4.2. With C85G U102G, the “polymerase ribozyme fitness (log ratio)” value was at most -4.2. The figure for C87G C93A C99A is at most -4.2; for C79A G136U U139A it is at most -4.2.

As for U78G G94U C105U A150U, the “polymerase ribozyme fitness (log ratio)” value is at most -4.2.

For the variant G83U A106G U127A, the “polymerase ribozyme fitness (log ratio)” value was at most -4.2. The figure for G83A C95A U111C C125U is at most -4.2; for U82A G94U C132G it is at most -4.2; for C87A G100C C131G it is at most -4.2. On to G84A C87U A97U A120C G143A U144G, for which the “polymerase ribozyme fitness (log ratio)” value is at most -4.2.

On to G83C C114A U139G A142G G152U, for which the “polymerase ribozyme fitness (log ratio)” value was at most -4.2. The same measure for C87A C123U: at most -4.2; for G83U G141A G143C A150G: at most -4.2; for C87A C103G C105G G117A: at most -4.2. As to G86U G136C G152U, the “polymerase ribozyme fitness (log ratio)” value is at most -4.2. Consider C79G G83C G88A G92U G140U U145G A147G, for which the “polymerase ribozyme fitness (log ratio)” value was at most -4.2.

As for G83A C99A U109C, the “polymerase ribozyme fitness (log ratio)” value is at most -4.2.

With U82A U130G G141A U145G, the “polymerase ribozyme fitness (log ratio)” value was at most -4.2.

In the case of G86A A97U C108A C114A U135G, the “polymerase ribozyme fitness (log ratio)” value was at most -4.2. The same measure for C85U U90G: at most -4.2.
